# From the RNAGym collection of RNA variant scans (doi:10.1101/gad.245936.114)
# Variants at the floor of the assay are shown more often than the library holds them.
# B1: tRNA (parent)
# chain: CUCUCGGUAGCCAAGUUGGUUUAAGGCGCAAGACUUUAAUUUAUCACUACGAAAUCUUGAGAUCGGGCGUUCGACUCGCCCCCGGGAGAUUUUUUCCUCGAGCAA
# Variants of: B1
# Assay: nonsense suppression (GFP-seq) (ratio to wild type); higher = more function; SUP4oc tRNA, yeast GFP reporter sort-seq
# How it was run: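 Sorted GFP/RFP bins of yeast were each Illumina-sequenced with a phred ≥30 cutoff; the cells held a genome-integrated ochre-suppressor tRNA variant from a library with ~3% random mutations, a galactose-driven GFP ochre reporter, and RFP. Culture was in raffinose/galactose medium containing 80 mg/L adenine. Nonsense suppression, termed GFPSEQ, is the median GFP/RFP of the bins weighted by each variant's estimated cell share per bin, relative to the unmutated parent tRNA, for variants reaching ≥100 reads and ≥30 cells.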
row,Variant,nonsense suppression
1,CUCUCGGUAGCCAAGUUGGUUUAACGCGCAGGACUUUAAUUUAUCACUACGAAAUCUUGAGAUCGGGGGUUCGACUCGCCCCCGGGAGAUUUUUUCCUCGAGCAA [G25C A31G C68G],≤ 0.026
2,CUCUCGGUAGCCAAGUUGGUUUAACGCGCAUGACUUUAAUUUAUCACUACGAAAUCUUGAGAUCGGGCGUUCGACUCGCCCCCGGGAGAUUUUUUCCUCGAGCAA [G25C A31U],≤ 0.026
3,CUCUCGGUAGCCAAGUUGGUUUAACGCGCAUGACUUUAAUUUAUCACUACGAAAUCUUGAGAUCGGGCGUUCGACUCGCCCGCGGGAGAUUUUUUCCUCGAGCAA [G25C A31U C82G],≤ 0.026
4,CUCUCGGUAGCCAAGUUGGUUUAACGCGCAAGCCUUUAAUUUAUCACUACGAAAUCUUGAGAUCGGGCGUUCGACUCGCCCCCGGGAGUUUUUUUCCUCGAGCAA [G25C A33C A89U],≤ 0.026
5,CUCUCGGUAGCCAAGUUGGUUUAACGCGCAAGGCUUUAAUUUAUCACUACGAAAUCUUGAGAUCGGGCGUUCGACUCGCCCCCGGGAGAUUUUUUCCUCGAGCAA [G25C A33G],≤ 0.026
6,CUCUCGGUAGCCAAGUUGGUUUAACGCGCAAGGCUUUAAUUUAUCACUACGAAAUCUAGAGAUCGGGCGGCCGACUCGCCCCCGGGAGAUUUUUUCCUCGAGCAA [G25C A33G U58A U70G U71C],≤ 0.026
7,CUCUCGGUAGCCAAGUUGGUUUAACGCGCAAGACUUUAAUUUAUCACUACGAACUCUUGAGAUCGGGCGUUCGACUCGCCCCCGGGAGAUUUUUUCCUCGAGCAA [G25C A54C],≤ 0.026
8,CUCUCGGUAGCCAAGUUGGUUUAACGCGCAAGACUUUAAUUUAUCACUACGAAAUCUUGCGAUCGGGCGUUCGACUCGCCCCCGGGAGAUUUUUUCCUCGAGCAA [G25C A60C],≤ 0.026
9,CUCUCGGUAGCCAAGUUGGUUUAACGCGCAAGACUUUAAUUUAUCACUACGAAAUCUUGGGAUCGGGCGUUCGACUCGCCCCGGGGAGAUUUUUUCCUCGAGCAA [G25C A60G C83G],≤ 0.026
10,CUCUCGGUAGCCAAGUUGGUUUAACGCGCAAGACUUUAAUUUAUCACUACGAAAUCUUGAGGUCGGGCGUUCGACACGCCCCCGGGAGAUUUUUUCCUCGAGCAA [G25C A62G U76A],≤ 0.026
11,CUCUCGGUAGCCAAGUUGGUUUAACGCGCAAGACUUUAAUUUAUCACUACGAAAUCUUGAGAUCGGGCGUUCGACUCGCCCCCGGGGGAUUUUUUCCUCGAGCAA [G25C A87G],≤ 0.026
12,CUCUCGGUAGCCAAGUUGGUUUAACGGGCAAGACUUUAAUUUAUCACUACGAAAUCUUGAGAUCGGGCGUUCGACUCGCCCCCGGGAGAUUUUUUCCUCGAGCAA [G25C C27G],≤ 0.026
13,CUCUCGGUAGCCAAGUUGGUUUAACGGGCAAGACUUUAAUUUAUCACUACGAAAUCUUGAGAUCGGGCGCUCGACUCGCCCCCGGGAGAUUUUUUCCUCGAGCAA [G25C C27G U70C],≤ 0.026
14,CUCUCGGUAGCCAAGUUGGUUUAACGUGAAAGACUUUAAUUUAUCACUACGAAAUCUAGAGAUCGGGCAUUAGACUCGCCCCCGGGAGAUUUUUUCCUCGAGCAA [G25C C27U C29A U58A G69A C72A],≤ 0.026
15,CUCUCGGUAGCCAAGUUGGUUUAACGCGGAAGACUUUAAUUUAUCACUACGAAAUCUUGAGAUCGGGCGUUCGACUCGCCCCCCGGAGAUUUUUUCCUCGAGCAA [G25C C29G G84C],≤ 0.026
16,CUCUCGGUAGCCAAGUUGGUUUAACGCGGAAGACUUUAAUUUAUCACUACGAAACCUUGAGAUCGAGCGUUCGACUCGCCCCCGGGAGAUUUUUUCCUCGAGCAA [G25C C29G U55C G66A],≤ 0.026
17,CUCUCGGUAGCCAAGUUGGUUUAACGCGUUAGACUUUAAUUUAUCACUACGAAAUCUUGAGAUCGGGCGGUCGACACGCCCCCGGGAGAUUUUUUCCUCGAGCAA [G25C C29U A30U U70G U76A],≤ 0.026
18,CUCUCGGUAGCCAAGUUGGUUUAACGCGCAAGAAUUUAAUUUAUCACUACGAAAUCUUGAGAUCGGGCGAUCGACUCGCCCCCGGUAGAUUUUUUCCUCGAGCAA [G25C C34A U70A G86U],≤ 0.026
19,CUCUCGGUAGCCAAGUUGGUUUAACGCGCAAGAGUUUAAUUUAUCACUACGAAAUCGUGAGAUCGGGCGUUCGACUCGCCCCGGGGAGAUUUUUUCCUCGAGCAA [G25C C34G U57G C83G],≤ 0.026
20,CUCUCGGUAGCCAAGUUGGUUUAACGCGCAAGACUUUAAUUUAUCACUACGAAAUCUUGAGAUUGGGCGUUCGACUCGCCCCCGGGAGAUUUUUUCCUCGAGCAA [G25C C64U],≤ 0.026
21,CUCUCGGUAGCCAAGUUGGUUUAACGCGCAAGACUUUAAUUUAUCACUACGAAAUCUUGAGAUCGGGAGAUCGACUCGCCCCCGGGAGAUUUUUUCCUCGAGCAA [G25C C68A U70A],≤ 0.026
22,CUCUCGGUAGCCAAGUUGGUUUAACGCGCAAGACUUUAAUUUAUCACUACGAAAUCUUGAGAUCGGGUGUUCGACUCGCCCCCGGGAGAUUUUUUCCUCGAGCAA [G25C C68U],0.031
23,CUCUCGGUAGCCAAGUUGGUUUAACGCGCAAGACUUUAAUUUAUCACUACGAAAUCUUGAGAUCGGGCGUUCGACUGGCGCCCGGGAGAUUUUUUCCUCGAGCAA [G25C C77G C80G],≤ 0.026
24,CUCUCGGUAGCCAAGUUGGUUUAACGCGCAAGACUUUAAUUUAUCACUACGAAAUCUUGAGAUCGGGCGUUCGACUCGCGCCCGGGAGAUUUUUUCCUCGAGCAA [G25C C80G],≤ 0.026
25,CUCUCGGUAGCCAAGUUGGUUUAACGCGCAAGACUUUAAUUUAUCACUACGAAAUCUUGAGAUCGGGCGUUCGACUCGCCCCGGGGAGAUUUUUUCCUCGAGCAA [G25C C83G],≤ 0.026
26,CUCUCGGUAGCCAAGUUGGUUUAACACGCGUGACUUUAAUUUAUCACUACGAAAUCUUGAGAUCGGGCGUUCGACUUGCCCCCGGGAGAUUUUUUCCUCGAGCAA [G25C G26A A30G A31U C77U],≤ 0.026
27,CUCUCGGUAGCCAAGUUGGUUUAACGCGCAAUACUUUAAUUUAUCACUACGAAGUCUUAAGAUCGGGCGUUCGACGCGCCCCCGGGAGAUUUUUUCCUCGAGCAA [G25C G32U A54G G59A U76G],≤ 0.026
